# Test results reported in PubChem BioAssay AID1345082 (National Center for Advancing Translational Sciences (NCATS), 2018).
# In all, about 94,000 compounds went through this assay and about 4,000 (4.3%) were called active. Inconclusive results, whose numbers are uncertain, are shown with a selection of clear calls. Calls come from the whole dose curve; as a rule, active = well fitted inhibition curve with a large enough effect; inconclusive = small, poorly fitted or top-dose-only effect; inactive = no such curve, though single readings can be large or run the other way. Where the call is inconclusive, the potency comes from a doubtful curve fit.
# Assay: Cytotoxic Profiling in NIH 3T3 Cell Line of Diverse Libraries Using Quantitative High-Throughput Screening; note: nearly all actives have a fitted effect of over 55% in size
# Conditions: NIH 3T3 viability, CellTiter-Glo ATP luminescence, 48-72 h; activity change, negative = cytotoxicity: at 96.7 µM (top of the series); series mostly up to 96.7 µM
# How it was run: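 Cytotoxicity was measured by CellTiter-Glo ATP luminescence after 48 or 72 h compound exposure at 37 °C. Mouse NIH 3T3 fibroblasts were seeded at 400 cells/well and dosed by 23 nL pin transfer.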
# % is set by controls: 0 for no effect and ±100 for the full control effect; potency is the fitted concentration of half-maximal effect; tags give direction and shape of the fitted curve.
SMILES,Potency,"activity change, negative = cytotoxicity"
Cn1cc(-c2cccc(Cl)c2)c2nc(CO)cn2c1=O,"inconclusive: 112 µM [inhibitor, partial curve, poor fit]",
COc1ccc(NC(=O)c2cc(-c3ccc[nH]3)n[nH]2)c(OC)c1,,inactive: -25%
CC(C)C[C@@H]1N[C@H](C(=O)N2CCCC2)Cc2c[nH]c3cccc1c23,"inconclusive: 100 µM [inhibitor, partial curve, poor fit]",
CC(C)c1nc2c(c(-c3ccc(O)cc3)n1)CCN(Cc1ccc(OC(F)(F)F)cc1)CC2,"inconclusive: 70.8 µM [inhibitor, partial curve, poor fit]",
CC1CCCN(C(=O)c2cc(-c3ccc(C(F)(F)F)cc3)nc3c2cnn3C)C1 (stereo not drawn),"inconclusive: 50.1 µM [inhibitor, partial curve, poor fit]",
O=C(c1ccccc1)N1CCN(c2ccnc3ccnn23)CC1,,inactive: -16.6% [at 138 µM]
C[C@]1(CO)[C@H]2Cc3sc(-c4ccccc4)nc3[C@@H](CC(=O)O)[C@]2(C)CC[C@H]1O,"inconclusive: 112 µM [inhibitor, single point]",
CCc1nc(CC)n2ccn(Cc3ccc(C#N)cc3)c(=O)c12,,inactive: -5.23%
COc1ccc(Cl)cc1NC(=O)Cn1cccc1-c1nc(-c2ccccc2)no1,,inactive: -18.2%
Cc1noc(-c2ccco2)c1C(=O)NC(C)c1ccccc1 (stereo not drawn),"inconclusive: 39.8 µM [inhibitor, partial curve, poor fit]",
CCOc1ccccc1C1NC(=O)N(CC(=O)Nc2ccc(C)cc2C)C2=C1C(=O)OC2 (stereo not drawn),,inactive: -5.51%
O=S(=O)(Cc1ccccc1)N1CCCC(OCc2noc(C3CCOCC3)n2)C1 (stereo not drawn),,inactive: -24.1%
Cn1cc(CC(=O)N2CCCc3ncc(C(=O)N4CCCC[C@@H]4Cc4ccccc4)cc32)c2ccccc21,"inconclusive: 35.5 µM [inhibitor, partial curve, poor fit]",
Cc1noc(-c2nc(-c3ccc4c(c3)OCO4)no2)n1,,inactive: -4.65%
Cc1cccc(OCC(=O)N2CCC3(CC2)NC(=O)N(c2ccc(F)cc2)N3)c1,"inconclusive: 39.8 µM [inhibitor, partial curve, poor fit]",
COC(=O)[C@H](Cc1ccc(OC)cc1)NC(=O)[C@H]1CN(C(C)=O)CCN1C(=O)C1CCCCC1,"inconclusive: 89.1 µM [inhibitor, single point]",
Cc1ccc(Nc2ccnc(N3CCCC3C(=O)NC3CCCC3)n2)cc1 (stereo not drawn),"inconclusive: 79.4 µM [inhibitor, partial curve, poor fit]",
Cc1ccc(CN2C(=O)[C@@H]3C[C@@H](O)CN3C3(CN(Cc4cccc(OC(F)(F)F)c4)C3)C2=O)o1,"inconclusive: 79.4 µM [inhibitor, partial curve, poor fit]",
CN(Cc1cccc(C(F)(F)F)c1)C(=O)c1cccc(Cl)c1,"inconclusive: 89.1 µM [inhibitor, partial curve, poor fit]",
O=[S+]([O-])(c1ccccc1)N1CC2(CCCCN2Cc2cccnc2)Cc2ccccc21 (stereo not drawn),"inconclusive: 50.1 µM [inhibitor, partial curve, poor fit]",
O=C(CN1C(=O)C(c2ccccc2)=NC12CCCC2)NCc1ccc(F)cc1,"inconclusive: 44.7 µM [inhibitor, partial curve, poor fit]",

SMILES,Potency,"activity change, negative = cytotoxicity"
O=C(Cn1nc2c(cc1=O)CCCCC2)N1CCN(c2ccc(Cl)cc2)CC1,,inactive: -1.89%
COCC(=O)Nc1ccc(-c2noc([C@@H]3CCCN3Cc3cccnc3)n2)cn1,,inactive: -26.8% [at 174 µM]
Cc1cc(Cn2cc3c4c(cccc42)[C@H](CC(C)C)N[C@H](C(=O)N2CCN(C)CC2)C3)no1,"inconclusive: 79.4 µM [inhibitor, partial curve]",
COc1ccc(NC(=O)CCC2CCN(S(=O)(=O)c3ccccc3C)CC2)c(OC)c1,"inconclusive: 35.5 µM [inhibitor, partial curve]",
COc1ccccc1CC(=O)N1CCCc2ncc(C(=O)NCc3cccc(F)c3)cc21,"inconclusive: 100 µM [inhibitor, partial curve, poor fit]",
CC1=C[C@@H](CNC(=O)C(C)(C)C)[C@H](C(C)C)C[C@H]1CC(=O)N1CCN(c2ccccn2)CC1,,inactive: -25.5%
CN(C)C(=O)N1CCC2(CC1)CC(c1cccc(C(F)(F)F)c1)=NO2,"inconclusive: 50.1 µM [inhibitor, partial curve, poor fit]",
Cc1ccc(C)c(NC(=O)Cn2c(-c3ccc(F)cc3)nc(C)c(CCO)c2=O)c1,,inactive: -10.4%
COc1ccc(-c2noc([C@@H]3CCCN3C(=O)Cc3ccc(F)cc3)n2)cc1,"inconclusive: 50.1 µM [inhibitor, partial curve, poor fit]",
O=C(O)Cn1ccc2cc(OCCc3cccc(-c4ccccc4)c3)cnc21,,inactive: -33.5% [at 138 µM]
Cc1ccc(OCC(=O)N[C@@H]2CCOC[C@H]2Oc2cccc(F)c2)cc1C,"inconclusive: 50.1 µM [inhibitor, partial curve, poor fit]",
O=C1COc2ccc(-c3ccccc3)nc2CN1,"inconclusive: 112 µM [inhibitor, partial curve]",
Cc1ccc(-n2cc(CN3CCC(CCO)CC3)c(-c3cccc(C)c3)n2)cc1,"inconclusive: 50.1 µM [inhibitor, partial curve, poor fit]",
O=C(NCC(F)(F)F)c1cn2cc(-c3cccc(C(F)(F)F)c3)sc2n1,"inconclusive: 50.1 µM [inhibitor, partial curve, poor fit]",
Cc1cc(C(=O)N2CC(n3c(C)cnc3-c3ccccc3)C2)n(C)n1,,inactive: -14.5%
CC(C)OC(C)C(=O)N1CCc2onc(-c3ccc(C(F)(F)F)cc3)c2C1 (stereo not drawn),"inconclusive: 56.2 µM [inhibitor, partial curve, poor fit]",
Cc1oc2ccn(Cc3ccc(F)cc3)c(=O)c2c1C(=O)O,,inactive: 1.73%
C#CCNC(=O)C[C@@H]1C[C@@H](C(C)C)[C@H](CNS(=O)(=O)c2cccc(C#N)c2)C=C1C,"inconclusive: 79.4 µM [inhibitor, partial curve, poor fit]",
O=C(c1ccnc(-c2nnc3ccc(Nc4ccccc4)nn23)c1)N1CCCCC1,"inconclusive: 56.2 µM [inhibitor, partial curve, poor fit]",
COc1ccc(-c2nc(C)nc3c2CN(C(=O)N(C)C)CC3)cc1,,inactive: -8.34%
O=C(NCCNC(=O)c1ccc(-c2cccc(C(F)(F)F)c2)cc1)Nc1ccccc1,,inactive: -14.1%

SMILES,Potency,"activity change, negative = cytotoxicity"
CCCc1nc(C(=O)NC(C)c2cnn(-c3ccccc3)c2C)cs1 (stereo not drawn),"inconclusive: 50.1 µM [inhibitor, partial curve, poor fit]",
COc1ccccc1Cn1c(=O)c(C(=O)N2CCN(C(=O)c3ccc(C)cc3)CC2)nc2cccnc21,"inconclusive: 44.7 µM [inhibitor, partial curve, poor fit]",
CCc1nc2c(c(-c3ccc(O)cc3)n1)CN(Cc1ccccc1OC)CC2,"inconclusive: 44.7 µM [inhibitor, partial curve, poor fit]",
CN(Cc1ncc[nH]1)c1ccc(-c2nc(CCCc3ccccc3)no2)cn1,"inconclusive: 39.8 µM [inhibitor, partial curve, poor fit]",
COCc1ccc2c(c1)c(OC(C)(C)C(=O)Nc1cc(C)nn1C)nn2Cc1ccccc1,"inconclusive: 39.8 µM [inhibitor, partial curve, poor fit]",
O=C(NCCCn1ccc2ccccc21)C1CC(=O)N(C2CCCC2)C1 (stereo not drawn),,inactive: -3.21%
COc1ccc2ccc(OCc3nc(C(=O)N(C)CC4COCCO4)co3)cc2c1 (stereo not drawn),"inconclusive: 56.2 µM [inhibitor, partial curve, poor fit]",
O=C(OCCF)N1CCC(Oc2cnc3c(ccn3-c3cncnc3)c2)CC1,"inconclusive: 22.4 µM [inhibitor, full curve, poor fit]",
COc1ccc(-c2cc(N3CCCN(C(=O)Cc4cccc(F)c4)CC3)n[nH]2)cc1,"inconclusive: 70.8 µM [inhibitor, single point]",
CC(C)Oc1ccc(C(=O)NC2CCN(c3cnn(C)c(=O)c3)CC2)cc1,,inactive: -9.16%
COc1ccc(CC(=O)N2CCCCC23Cc2ccccc2NC3=O)cc1 (stereo not drawn),"inconclusive: 22.4 µM [inhibitor, full curve]",
O=C(NCc1ccco1)C1COC2(CCN(C(=O)c3ccco3)CC2)N1C(=O)c1ccc(F)cc1 (stereo not drawn),,inactive: -23.4%
CC(=O)NCCc1ncc(C)n1C1CCCCCCC1,"inconclusive: 50.1 µM [inhibitor, partial curve, poor fit]",
CC(C)(C)CC(=O)N[C@H]1C[C@@H](Cc2cc(CN3CCN(c4ccccc4)CC3)on2)C1(C)C,"inconclusive: 12.6 µM [inhibitor, partial curve, poor fit]",
CC(C)(CC1Cc2ccccc2C1)NC(=O)C1CC2(CCNCC2)CN1 (stereo not drawn),active: 31.6 µM,
O=C(c1cnco1)N1CC(F)(F)C[C@H]1c1nc(-c2ccccc2)no1,,inactive: -17.5%
O=C(c1ccc(Cl)nc1)N1CCN(c2nccc(Nc3ccccc3F)n2)CC1,"inconclusive: 44.7 µM [inhibitor, partial curve, poor fit]",
COc1cccc(CC(=O)N2CCC(CC(=O)NCc3ccccc3)C2)c1 (stereo not drawn),"inconclusive: 50.1 µM [inhibitor, partial curve, poor fit]",
O=C(CN1C(=O)NC(c2ccc(Cl)cc2)C2=C1COC2=O)Nc1cc(F)ccc1F (stereo not drawn),"inconclusive: 44.7 µM [inhibitor, partial curve, poor fit]",
Cc1ccccc1CN1C[C@H](O)C[C@H]1c1nc(C2CC2)no1,,inactive: -4.1% [at 174 µM]
CC(C)c1noc(-c2cn(C3CCCN(C(=O)c4ccncc4)C3)nn2)n1 (stereo not drawn),,inactive: -8.85%
